# PMC4336329 (PLoS ONE, 2015)
# The campaign covered roughly 310,000 compounds. About 2,200 (0.71%) showed an effect of 50% or more. Effects have a minus sign here. The list shows a part of the results.
# Molecular target: human ether-à-go-go-related gene (hERG) potassium channel (human, UniProt Q12809)
# Test: primary screen, population patch clamp on CHO cells stably expressing hERG
# human ether-à-go-go-related gene (hERG) potassium channel, sequence (Q12809 whole entry, looked up): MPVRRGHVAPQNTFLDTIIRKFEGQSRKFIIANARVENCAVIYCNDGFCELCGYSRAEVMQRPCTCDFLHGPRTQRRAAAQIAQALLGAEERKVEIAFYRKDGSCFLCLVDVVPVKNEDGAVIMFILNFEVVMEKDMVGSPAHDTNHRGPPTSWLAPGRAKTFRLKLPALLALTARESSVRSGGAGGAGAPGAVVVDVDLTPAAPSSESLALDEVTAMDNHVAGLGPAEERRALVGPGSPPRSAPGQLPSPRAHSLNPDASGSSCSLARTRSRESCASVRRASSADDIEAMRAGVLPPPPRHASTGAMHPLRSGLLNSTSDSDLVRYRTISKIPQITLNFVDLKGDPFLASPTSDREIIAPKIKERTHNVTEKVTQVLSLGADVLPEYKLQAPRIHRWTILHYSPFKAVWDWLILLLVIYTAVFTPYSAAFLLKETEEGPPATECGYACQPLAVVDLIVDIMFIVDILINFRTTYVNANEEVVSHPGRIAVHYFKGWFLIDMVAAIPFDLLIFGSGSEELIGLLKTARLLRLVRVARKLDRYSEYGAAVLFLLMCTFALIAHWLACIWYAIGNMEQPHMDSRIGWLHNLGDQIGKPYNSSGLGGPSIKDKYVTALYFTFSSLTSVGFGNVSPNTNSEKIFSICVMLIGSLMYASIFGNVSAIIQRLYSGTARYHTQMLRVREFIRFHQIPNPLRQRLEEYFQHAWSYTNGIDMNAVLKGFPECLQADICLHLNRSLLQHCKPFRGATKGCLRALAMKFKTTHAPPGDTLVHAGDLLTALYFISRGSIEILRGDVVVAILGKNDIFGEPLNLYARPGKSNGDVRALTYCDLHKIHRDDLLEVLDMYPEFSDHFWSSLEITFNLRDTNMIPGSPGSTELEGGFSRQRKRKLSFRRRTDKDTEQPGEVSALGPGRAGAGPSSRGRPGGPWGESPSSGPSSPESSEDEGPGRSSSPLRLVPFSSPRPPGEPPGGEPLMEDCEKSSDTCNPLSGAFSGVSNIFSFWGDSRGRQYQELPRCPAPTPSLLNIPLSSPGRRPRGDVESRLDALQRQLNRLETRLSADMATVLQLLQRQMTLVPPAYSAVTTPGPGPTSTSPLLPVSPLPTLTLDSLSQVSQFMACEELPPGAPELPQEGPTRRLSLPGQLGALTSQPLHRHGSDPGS
row,SMILES,"hERG current change (%, negative = inhibition) at 1uM [%]"
1,CC(C)CN(C(=O)c1ccco1)C1CCS(=O)(=O)C1 (stereo not shown),6.19
2,Cc1cc(OCC(=O)NNC(=O)CCc2ccccc2)ccc1Br,15.6
3,O=C(Cc1ccccc1)Oc1ccc([N+](=O)[O-])cc1,16.7
4,CCOC(=O)C1=NNC(C(=O)c2ccc(C)cc2)C1c1ccc(OC)cc1 (stereo not shown),-1.62
5,CCC(C)[C@H](NC(=O)NCc1ccccc1)C(=O)O (stereo partly shown),8.86
6,C=CCNC(=O)CC12CC3CC(C1)CC(CC(=O)NCC=C)(C3)C2,16.1
7,O=S(=O)(c1cccc(-n2cnnn2)c1)N1CCOCC1,6.79
8,O=C(Nc1ccccc1)c1ccc2c(c1)CCN2S(=O)(=O)c1ccccc1,11.5
9,Fc1ccc(NC(=S)NCCN2CCOCC2)c(F)c1F,12.2
10,COC(=O)c1cccc(C23CC4(C2)[C@H](CN(Cc2cccnc2)[C@@H]4c2ccccc2)C3c2ccc(Cl)nc2)c1 (stereo partly shown),6.68
11,O=C(NCCCc1ccccc1)C1CCC(=O)N(CCc2ccc(Cl)cc2)C1 (stereo not shown),-62.2
12,COc1ccc(CNC(=O)c2cccc(N(C)C)c2)cc1,8.92
13,Cc1ccc(CNC(=O)C2CCN(S(=O)(=O)c3cccs3)CC2)o1,-10.1
14,Cc1ccc(C(=O)N2CCN(c3ccc(NC(=O)c4cccnc4)cc3)CC2)cc1,-11.3
15,Cc1cc(C)n2c(Nc3ccc4c(c3)OCCO4)c(-c3ccc(C)o3)nc2n1,5.63
16,CCCC1=NN(c2ccc([N+](=O)[O-])cc2)C(=O)/C1=C/N(C)C,6.46
17,Cc1cc(C)cc(NC(=O)CSc2nnc(-c3ccccc3C)o2)c1,-5.13
18,CC1=NN2C(=N)/C(=C\c3cc(C)n(-c4ccc(C)cc4)c3C)C(=O)N=C2S1,7.02
19,CCCS(=O)(=O)c1nc(S(=O)(=O)c2ccc(C)cc2)c(N2CCCC2)s1,14.5
20,COc1ccc(C23NCCN2C(=O)c2ccccc23)cc1 (stereo not shown),17.1
21,COc1ccc(C(=O)Nc2ncccc2C)cc1S(=O)(=O)N1CCCc2ccccc21,8.54
22,C#CCSc1nnc(-c2ccccc2)c(=O)[nH]1,8.97

row,SMILES,"hERG current change (%, negative = inhibition) at 1uM [%]"
1,CCOC(=O)CSc1nc2ccc(N3CCOCC3)cc2c(=O)n1Cc1ccc2c(c1)OCO2,6.74
2,COC(=O)c1c(NC(=O)CSc2nc(-c3ccco3)cc(C(F)(F)F)n2)sc2c1CCCC2,16.8
3,COC(=O)[C@@]1(Cc2ccc(F)cc2)[C@H]2c3cc(C(=O)N4CCCC4)n(CCc4c[nH]c5ccc(OC)cc45)c3C[C@H]2CN1C(=O)c1ccccc1,12.8
4,COc1cccc(CC2(CO)CCCN(C/C=C/c3ccccc3OC)C2)c1 (stereo not shown),-32.8
5,COc1cc2nc(C3CCC3)n(N)c(=O)c2cc1OC,11.3
6,O=C(N/N=C/c1ccco1)c1cc(-c2ccc(Cl)cc2)n[nH]1,5.92
7,O=C1NC(=O)N(c2ccccc2)C(=O)/C1=C\c1ccc2c3c(cccc13)CC2,8.05
8,O=c1sc2ccccc2n1Cc1ccccc1,4.61
9,CC1=CC2=NC(=O)/C(=C/c3coc4ccccc4c3=O)C(=N)N2O1,10.7
10,Cc1ccc(S(=O)(=O)NC(CC(=O)NCC2CCCO2)c2ccco2)cc1 (stereo not shown),17.3
11,COc1cccc(OCCc2c(C)n[nH]c2C)c1.Cl,4.51
12,NC(=NCCc1c[nH]c2ccccc12)NC(=O)c1ccc(Cl)cc1,7.8
13,Cc1nc(NCc2ccccn2)c2ccccc2n1.Cl,12.5
14,CN(CC1COc2ccccc2O1)C(=S)Nc1ccccc1F (stereo not shown),8.66
15,COc1ccc(CC(=O)OCC(=O)NCCNC(=O)COC(=O)Cc2ccc(OC)cc2)cc1,7.38
16,O=C1c2cccc3c(O)ccc(c23)C(=O)N1Cc1ccccc1,10.5
17,O=C(NCC1CCCO1)c1cccs1 (stereo not shown),0.613
18,CCOC(=O)/C(=C\Nc1ccccc1C(F)(F)F)Sc1ncc(C(F)(F)F)cc1Cl,7.07
19,O=C(Nc1ccc(-c2nc3ccccc3o2)cc1)c1ccc(N2C(=O)C3C4C=CC(C4)C3C2=O)cc1 (stereo not shown),4.62
20,COc1ccc(CNC(=O)CN(C(=O)c2csnn2)c2cccc3c2CCCC3)cc1,-1.02
21,O=c1c(NCCc2ccc(Cl)cc2)c(-c2ccccc2)c1=O,8.47
